Sequences and labels used below:
B1: Q9UKT9 (peptide)
chain: FECNVCGAFFTQKGNLLRHIKL
B2: Q9UKT9 (peptide)
chain: FSCPQCGAAFTQKGNLLRHIKL
B3: Q9UKT9 (peptide)
chain: FTCDQCGAHFTQKGNLLRHIKL
B4: Q9UKT9 (peptide)
chain: FKCNQCGRRFTQKGNLLRHIKL
B5: Q9UKT9 (peptide)
chain: FHCEQCGALFTQKGNLLRHIKL
B6: Q9UKT9 (peptide)
chain: FKCEQCGALFTQKGNLLRHIKL
B7: Q9UKT9 (peptide)
chain: FHCPICGRVFTQKGNLLRHIKL
B8: Q9UKT9 (peptide)
chain: FFCNQCGAIFTQKGNLLRHIKL
B9: Q9UKT9 (peptide)
chain: FKCEICGRHFTQKGNLLRHIKL
B10: Q9UKT9 (peptide)
chain: FRCNQCGAHFTQKGNLLRHIKL
B11: Q9UKT9 (peptide)
chain: FLCEVCGAMFTQKGNLLRHIKL
B12: Q9UKT9 (peptide)
chain: LFCNQCGFDCTQKGNLLRHIKL
B13: Q9UKT9 (peptide)
chain: LCCPICGFDCTQKGNLLRHIKL
B14: Q9UKT9 (peptide)
chain: FGCNQCGRSFTQKGNLLRHIKL
B15: Q9UKT9 (peptide)
chain: FKCEICGRYFTQKGNLLRHIKL
B16: Q9UKT9 (peptide)
chain: FQCPICGAAFTQKGNLLRHIKL
B17: Q9UKT9 (peptide)
chain: FRCEQCGARFTQKGNLLRHIKL
B18: Q9UKT9 (peptide)
chain: FNCPICGHQFTQKGNLLRHIKL
B19: Q9UKT9 (peptide)
chain: FICNQCGADFTQKGNLLRHIKL
B20: Q9UKT9 (peptide)
chain: FCCNQCGHEFTQKGNLLRHIKL
B21: Q9UKT9 (peptide)
chain: FHCPVCGAQFTQKGNLLRHIKL
B22: Q9UKT9 (peptide)
chain: FECEICGRVFTQKGNLLRHIKL
B23: Q9UKT9 (peptide)
chain: FNCDVCGAWFTQKGNLLRHIKL
B24: Q9UKT9 (peptide)
chain: FYCNICGASFTQKGNLLRHIKL
B25: Q9UKT9 (peptide)
chain: LQCNQCGFPCTQKGNLLRHIKL
B26: Q9UKT9 (peptide)
chain: FCCEVCGAQFTQKGNLLRHIKL
B27: Q9UKT9 (peptide)
chain: FLCPICGRDFTQKGNLLRHIKL
B28: Q9UKT9 (peptide)
chain: FFCEQCGAQFTQKGNLLRHIKL
B29: Q9UKT9 (peptide)
chain: FICPICGAAFTQKGNLLRHIKL
B30: Q9UKT9 (peptide)
chain: FFCPICGHAFTQKGNLLRHIKL
B31: Q9UKT9 (peptide)
chain: FSCEVCGAYFTQKGNLLRHIKL
B32: Q9UKT9 (peptide)
chain: FGCEICGHLFTQKGNLLRHIKL

The list shows a part of the results.
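Also: jurkat cells carrying a lentiviral library of mutant zinc finger degrons fused to EGFP plus mCherry, mCherry+ cells FACS sorted, degron abundance counted by next-generation sequencing.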

The target in this assay is no compound (DMSO). As to the kind of experiment: log2 fold change of degron read counts, EGFP-low vs EGFP+ sorted cells; higher = lower degron-EGFP level without compound (poor expression or instability). To be noted: compound: DMSO control; 18 h.
As to B1, the “log2 fold change of degron read counts” value is -1.25.
For B2, the “log2 fold change of degron read counts” value is -0.685.
In the case of B3 it was -2.18; in that of B4, -0.826.
In the case of B5 it was -1.26; in that of B6, -1.5; in that of B7, -0.993.
In the case of B8 it was 1.23; in that of B9, -1.17; in that of B10, -0.239.
As for B11, the “log2 fold change of degron read counts” value is -1.2.
As for B12, the “log2 fold change of degron read counts” value is 0.274.
The same measure for B13: 0.917.
The same measure for B14: -0.0785.
The same measure for B15: -0.406; for B16: -0.145.
Take B17: the “log2 fold change of degron read counts” value is -0.952.
Turning to B18, the “log2 fold change of degron read counts” value was -0.0114.
The same measure for B19: -1.61; for B20: -1.21.
The same measure for B21: -0.471; for B22: -1.18; for B23: -0.823.
With B24, the “log2 fold change of degron read counts” value is -0.587.
The same measure for B25: 0.189; for B26: -1.93.
The same measure for B27: -0.61.
In the case of B28 it was -1.53.
For the sequence B29, the “log2 fold change of degron read counts” value was -0.039.
The same measure for B30: 0.466; for B31: -0.676.
In the case of B32 it was 0.0413.
